The campaign covered roughly 43,000 compounds. About 200 (0.47%) were called active. Inconclusive results (about 12%) are left out. The call rests on the fitted dose curve; in most records, active means well fitted cell-killing curve with a large enough effect; inconclusive means small, poorly fitted or top-dose-only effect, or effect the other way; inactive means flat fitted curve, though single readings scatter. The list shows a part of the results.

The results in this text go back to PubChem BioAssay AID1508642 (National Center for Advancing Translational Sciences (NCATS), 2021).
On the % scale 0 is the no-effect control and ±100 the full control effect.

This assay can be described thus: Cell viability qHTS assay in S16 Pmp22-F2sN cells. Further: nearly all actives have a fitted effect of over 65% in size. The following applies: S16 Pmp22-F2sN Schwann cells viability, CellTiter-Glo, 24 h; series mostly up to 57.5 µM; activity change, negative = cytotoxicity: at the top concentration. In a few lines:
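S16 Pmp22-F2sN Schwann cells (500-1,000/well) in phenol-red-free DMEM with 10% FBS received 23 nL compound by pin tool for 24 h at 37 °C. Viability was then read as CellTiter-Glo luminescence after 15 min at room temperature.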
(In general: In qHTS, concentration-response curves come from the screen itself.)
Regarding `CCc1cccc(C)c1NC(=O)C1=C(C)C(=O)OC12CCC(C)CC2` (configuration not stated), the “activity change, negative = cytotoxicity” value was inactive: 4.71%. To `CCCOc1ccc(C2=NC(c3ccc(F)cc3)=Nc3ccc(OC)cc3N2)cc1` belongs inactive: -0.388%; to `COC(=O)c1cc(S(=O)(=O)N2CCN(c3ccc(F)cc3)CC2)cn1C`, inactive: -13.4%; to `COc1ccccc1CNC(=O)c1ccc2c(c1)CCN2S(=O)(=O)c1ccc(Cl)cc1`, inactive: 1.58%. In the case of `COc1ccc2nc(N(Cc3cccnc3)C(=O)COc3ccccc3)sc2c1`, the “activity change, negative = cytotoxicity” value is inactive: -1.66%. `Cn1cc(C(=O)NCCc2ccc(Cl)cc2)c(=O)c2cc(S(=O)(=O)N3CCCCC3)ccc21`: the “activity change, negative = cytotoxicity” value was inactive: -4.64%.

As for `COC(=O)c1ccc(Cn2nnc3c(=O)[nH]c(C4CCCN(S(=O)(=O)c5ccccc5)C4)nc32)cc1` (configuration not stated), the “activity change, negative = cytotoxicity” value is inactive: -5.12%.

With `Cc1ccc(Nc2ncnc3c2nc2n3CCCC2)c(Br)c1`, the “activity change, negative = cytotoxicity” value was inactive: -5.32%. The same measure for `COc1ccccc1CNC(=O)c1cnc2sc(N3CCOCC3)nn2c1=O`: inactive: -4.43%. In the case of `COc1ccc(N2CCN(C(=O)Cn3nc(Cc4cccnc4)c4ccccc4c3=O)CC2)cc1`, the “activity change, negative = cytotoxicity” value was inactive: -2.15%. With `COc1ccc(NC(=O)NCC2CCN(Cc3ccccc3F)CC2)c(OC)c1`, the “activity change, negative = cytotoxicity” value is inactive: -1.17%. As for `CCOc1ccccc1C(=O)Nc1cc(-c2ccc(C)cc2)no1`, the “activity change, negative = cytotoxicity” value was inactive: -5.45%. As to `Cc1cccc(S(=O)Cc2ccc(C(=O)NC3CCCCCC3)o2)c1` (configuration not stated), the “activity change, negative = cytotoxicity” value was inactive: 13.1%. For the compound `Cc1c(-c2ccccc2)n(-c2ccccc2O)c2nc3c(c(=O)n(C)c(=O)n3C)n12`, the “activity change, negative = cytotoxicity” value was inactive: -11.6%. For the compound `Cc1ccc(C(=O)Nc2ccc(C(=O)OCc3cc(=O)n4c5c(sc4n3)CCCC5)cc2)cc1`, the “activity change, negative = cytotoxicity” value is inactive: -18.5%.

As to `CCOc1ccc(-c2nnc(SCC(=O)NCCc3ccccc3)nc2-c2ccc(OCC)cc2)cc1`, the “activity change, negative = cytotoxicity” value is inactive: 13.1%. To `COc1cccc(CNc2nc3c(-c4cccc(C)c4)nnn3c3ccccc23)c1` belongs inactive: 5.65%.

Regarding `CC(=O)Nc1ccc(NC(=O)CCC(=O)c2ccc(C)cc2)cc1`, the “activity change, negative = cytotoxicity” value is inactive: -3.47%. Consider `Cc1cc(NC(=O)C(C)(C)Oc2ccc(Cl)cc2)cc(-c2nc3ncccc3o2)c1O`, for which the “activity change, negative = cytotoxicity” value was inactive: 6.54%. Turning to `CCOc1ccccc1NC(=O)c1ccc2c(Cl)c3c(nc2c1)CCCC3`, the “activity change, negative = cytotoxicity” value was inactive: 25.4%.

Take `COc1ccc(C)cc1NC(=O)CCNS(=O)(=O)c1cccc2nonc12`: the “activity change, negative = cytotoxicity” value is inactive: 12%. In the case of `CCc1ccc(NC(=O)c2sc3nc(C)c(Cl)c(C)c3c2NC(=O)c2ccccc2)cc1`, the “activity change, negative = cytotoxicity” value was inactive: 7.47%.

Turning to `Cc1cccc(CNC(=O)c2sc3ncnc(N(C)C4CCCCC4)c3c2C)c1`, the “activity change, negative = cytotoxicity” value was inactive: 1.54%. In the case of `Cc1nn(-c2ccccc2)c2nc(C3CC3)cc(C(=O)NCc3ccccc3Cl)c12`, the “activity change, negative = cytotoxicity” value is inactive: -1.01%.

As to `CCN(CC)c1nc(-c2ccccc2Cl)c2cc(Br)ccc2n1`, the “activity change, negative = cytotoxicity” value was inactive: 0.585%. `O=C(C1CC1)N1CCN(c2nc3c(F)cc(F)cc3s2)CC1`: the “activity change, negative = cytotoxicity” value is inactive: -8.12%.

For the compound `CC(C)Nc1ccc(-c2nc(-c3ccccn3)no2)cc1[N+](=O)[O-]`, the “activity change, negative = cytotoxicity” value was inactive: -0.551%. For `Cc1cc(Cl)ccc1OCC(=O)N(Cc1ccc(N(C)C)cc1)CC1CCCO1` (configuration not stated), the “activity change, negative = cytotoxicity” value is inactive: -28.5%.

Consider `Cc1cc(C)cc(C(=O)Nc2nnc3n2CCS3)c1`, for which the “activity change, negative = cytotoxicity” value is inactive: -24.6%. To `CCOC(=O)c1ccc(NC(=O)CSc2nccn2Cc2ccc(OC)cc2)cc1` belongs inactive: -0.246%; to `O=C(CSc1ncc2c(n1)-c1cc(Cl)ccc1N(Cc1ccccc1F)S2(=O)=O)Nc1cccc(C(F)(F)F)c1`, inactive: 8.71%; to `COC(=O)c1cc(NC(=O)c2ccc3c(c2)N(Cc2cccc(Cl)c2)C(=O)c2ccccc2S3=O)cc(C(=O)OC)c1` (configuration not stated), inactive: -2.26%. The same measure for `CC(=O)c1cccc(NC(=O)c2c(C)nn(-c3ccc(F)cc3)c2-n2cccc2)c1`: inactive: -2.99%; for `Cc1cc2ccccc2n2c(SCC(=O)Nc3cccc(C(F)(F)F)c3)nnc12`: inactive: -29.4%; for `CCCn1c2ccccc2c2cnn(CC(=O)Nc3ccc(C)cc3Br)c(=O)c21`: inactive: 3.94%. On to `CCOc1ccccc1NC(=O)c1cnc(N2CCOCC2)c2ccccc12`, for which the “activity change, negative = cytotoxicity” value was inactive: -4.61%. For the compound `COc1ccc(OCc2nc3c4c(-c5ccc(OC)cc5)c(-c5ccc(OC)cc5)oc4ncn3n2)cc1`, the “activity change, negative = cytotoxicity” value was inactive: -2.22%. The same measure for `COc1ccc(NC(=O)CCS(=O)(=O)c2nc(-c3ccc4c(c3)OCO4)cc(C(F)(F)F)n2)c(OC)c1`: inactive: 17.7%; for `COc1ccc(CCNC(=O)c2cc(S(=O)(=O)N3CCCC(C)C3)cn2C)cc1OC` (configuration not stated): inactive: 10.9%. Regarding `O=C(O)c1ccc2c(c1)N(Cc1ccc(F)cc1Cl)C(=O)c1ccccc1S2`, the “activity change, negative = cytotoxicity” value is inactive: 28.8%. For the compound `CC(CNC(=O)CCCn1c(=O)c2cccn2c2ccccc21)c1ccccc1` (configuration not stated), the “activity change, negative = cytotoxicity” value was inactive: -5.56%. The same measure for `CCN(C(=O)c1cnc(N2CCOCC2)c2ccccc12)c1cc(C)ccc1C`: inactive: 11.9%; for `CC(C)N(Cc1ccccc1)C(=O)CN1C(=O)COc2ccc(S(=O)(=O)N3CCCCCC3)cc21`: inactive: -1.24%. The same measure for `CCOc1ccc(NC(=O)Cn2cc(C(=O)c3ccccc3)c(=O)c3cc4c(cc32)OCO4)cc1`: inactive: 7.75%.

`Cc1ccc(Cn2c(=O)n(-c3ccc(C)c(C)c3)c(=O)c3c(C)c(C)sc32)cc1`: the “activity change, negative = cytotoxicity” value was inactive: 1.37%.

In the case of `CCOc1ccc(CNC(=O)C2=Cc3cc(Br)ccc3OC2)cc1OC`, the “activity change, negative = cytotoxicity” value is inactive: 2.53%. As to `COc1ccccc1NC(=O)c1oc2ccccc2c1NC(=O)COc1ccccc1OC`, the “activity change, negative = cytotoxicity” value is inactive: 4.51%.
